Reference: paper PMC7838300
These are yes or no findings as the source states them, for the method shown. In cells and extracts the contact can be indirect. Some binding calls cover weakened binding; strength is not graded here. One block for each substance: values may come before it.

By UniProt entry, the sequences of proteins in these tests, tags left out. Where a name states a change or a piece, a line headed by the entry shows the natural chain unless it says otherwise. Chains listed by the source or under a name are the forms on record and can include a tag or linker.
UniProt P27694: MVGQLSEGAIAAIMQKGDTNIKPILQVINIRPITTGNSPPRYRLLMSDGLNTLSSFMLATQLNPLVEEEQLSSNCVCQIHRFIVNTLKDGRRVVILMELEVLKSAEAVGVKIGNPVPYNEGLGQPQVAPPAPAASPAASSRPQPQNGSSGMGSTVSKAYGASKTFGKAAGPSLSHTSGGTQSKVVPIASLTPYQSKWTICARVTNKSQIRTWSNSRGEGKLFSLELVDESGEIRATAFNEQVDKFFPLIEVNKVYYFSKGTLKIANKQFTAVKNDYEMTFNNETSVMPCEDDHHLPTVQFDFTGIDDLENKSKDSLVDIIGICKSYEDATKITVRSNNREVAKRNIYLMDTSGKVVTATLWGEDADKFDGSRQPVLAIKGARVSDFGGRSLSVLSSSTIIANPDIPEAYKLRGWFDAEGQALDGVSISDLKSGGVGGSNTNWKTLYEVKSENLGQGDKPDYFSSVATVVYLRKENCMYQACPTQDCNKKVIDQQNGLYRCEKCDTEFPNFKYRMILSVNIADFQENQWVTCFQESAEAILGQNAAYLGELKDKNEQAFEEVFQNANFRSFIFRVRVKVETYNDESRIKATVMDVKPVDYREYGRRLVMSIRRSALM
UniProt P54132: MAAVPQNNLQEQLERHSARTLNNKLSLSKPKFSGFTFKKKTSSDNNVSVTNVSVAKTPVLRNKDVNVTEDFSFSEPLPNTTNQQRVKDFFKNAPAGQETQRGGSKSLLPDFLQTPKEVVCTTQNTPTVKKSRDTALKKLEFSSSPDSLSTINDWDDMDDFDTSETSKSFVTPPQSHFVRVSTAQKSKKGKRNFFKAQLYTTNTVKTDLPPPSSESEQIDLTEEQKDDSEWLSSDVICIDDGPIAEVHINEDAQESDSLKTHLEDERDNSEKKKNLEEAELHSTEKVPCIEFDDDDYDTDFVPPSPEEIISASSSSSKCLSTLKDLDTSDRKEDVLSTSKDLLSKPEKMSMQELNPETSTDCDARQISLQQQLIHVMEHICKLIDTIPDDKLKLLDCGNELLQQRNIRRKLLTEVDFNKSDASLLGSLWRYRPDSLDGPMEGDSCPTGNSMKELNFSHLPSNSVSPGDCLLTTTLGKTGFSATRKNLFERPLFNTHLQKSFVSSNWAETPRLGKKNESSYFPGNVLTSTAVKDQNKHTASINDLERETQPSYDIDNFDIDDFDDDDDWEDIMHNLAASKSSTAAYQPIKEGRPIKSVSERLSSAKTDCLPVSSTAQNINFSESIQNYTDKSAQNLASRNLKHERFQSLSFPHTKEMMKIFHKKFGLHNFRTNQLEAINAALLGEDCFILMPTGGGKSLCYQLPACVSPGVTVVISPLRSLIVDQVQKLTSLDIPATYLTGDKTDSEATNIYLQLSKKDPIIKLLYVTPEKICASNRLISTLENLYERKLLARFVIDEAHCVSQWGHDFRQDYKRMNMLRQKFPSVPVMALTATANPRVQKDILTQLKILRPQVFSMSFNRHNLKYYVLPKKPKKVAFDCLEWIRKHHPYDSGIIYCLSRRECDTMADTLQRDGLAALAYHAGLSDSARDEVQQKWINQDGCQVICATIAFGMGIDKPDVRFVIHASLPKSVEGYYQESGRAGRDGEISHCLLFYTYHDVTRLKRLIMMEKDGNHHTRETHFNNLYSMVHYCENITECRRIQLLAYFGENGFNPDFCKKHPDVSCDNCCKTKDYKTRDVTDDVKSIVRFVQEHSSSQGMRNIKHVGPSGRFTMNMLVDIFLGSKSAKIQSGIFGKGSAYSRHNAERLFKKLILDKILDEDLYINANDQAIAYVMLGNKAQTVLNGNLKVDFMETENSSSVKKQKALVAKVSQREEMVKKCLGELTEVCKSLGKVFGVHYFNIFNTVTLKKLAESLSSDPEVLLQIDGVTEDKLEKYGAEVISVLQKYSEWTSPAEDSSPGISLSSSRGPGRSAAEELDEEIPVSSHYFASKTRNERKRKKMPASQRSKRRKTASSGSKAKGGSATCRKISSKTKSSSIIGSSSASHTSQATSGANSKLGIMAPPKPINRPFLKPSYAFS
FLAG-tagged BLM with motif 1 deleted (P54132, form named): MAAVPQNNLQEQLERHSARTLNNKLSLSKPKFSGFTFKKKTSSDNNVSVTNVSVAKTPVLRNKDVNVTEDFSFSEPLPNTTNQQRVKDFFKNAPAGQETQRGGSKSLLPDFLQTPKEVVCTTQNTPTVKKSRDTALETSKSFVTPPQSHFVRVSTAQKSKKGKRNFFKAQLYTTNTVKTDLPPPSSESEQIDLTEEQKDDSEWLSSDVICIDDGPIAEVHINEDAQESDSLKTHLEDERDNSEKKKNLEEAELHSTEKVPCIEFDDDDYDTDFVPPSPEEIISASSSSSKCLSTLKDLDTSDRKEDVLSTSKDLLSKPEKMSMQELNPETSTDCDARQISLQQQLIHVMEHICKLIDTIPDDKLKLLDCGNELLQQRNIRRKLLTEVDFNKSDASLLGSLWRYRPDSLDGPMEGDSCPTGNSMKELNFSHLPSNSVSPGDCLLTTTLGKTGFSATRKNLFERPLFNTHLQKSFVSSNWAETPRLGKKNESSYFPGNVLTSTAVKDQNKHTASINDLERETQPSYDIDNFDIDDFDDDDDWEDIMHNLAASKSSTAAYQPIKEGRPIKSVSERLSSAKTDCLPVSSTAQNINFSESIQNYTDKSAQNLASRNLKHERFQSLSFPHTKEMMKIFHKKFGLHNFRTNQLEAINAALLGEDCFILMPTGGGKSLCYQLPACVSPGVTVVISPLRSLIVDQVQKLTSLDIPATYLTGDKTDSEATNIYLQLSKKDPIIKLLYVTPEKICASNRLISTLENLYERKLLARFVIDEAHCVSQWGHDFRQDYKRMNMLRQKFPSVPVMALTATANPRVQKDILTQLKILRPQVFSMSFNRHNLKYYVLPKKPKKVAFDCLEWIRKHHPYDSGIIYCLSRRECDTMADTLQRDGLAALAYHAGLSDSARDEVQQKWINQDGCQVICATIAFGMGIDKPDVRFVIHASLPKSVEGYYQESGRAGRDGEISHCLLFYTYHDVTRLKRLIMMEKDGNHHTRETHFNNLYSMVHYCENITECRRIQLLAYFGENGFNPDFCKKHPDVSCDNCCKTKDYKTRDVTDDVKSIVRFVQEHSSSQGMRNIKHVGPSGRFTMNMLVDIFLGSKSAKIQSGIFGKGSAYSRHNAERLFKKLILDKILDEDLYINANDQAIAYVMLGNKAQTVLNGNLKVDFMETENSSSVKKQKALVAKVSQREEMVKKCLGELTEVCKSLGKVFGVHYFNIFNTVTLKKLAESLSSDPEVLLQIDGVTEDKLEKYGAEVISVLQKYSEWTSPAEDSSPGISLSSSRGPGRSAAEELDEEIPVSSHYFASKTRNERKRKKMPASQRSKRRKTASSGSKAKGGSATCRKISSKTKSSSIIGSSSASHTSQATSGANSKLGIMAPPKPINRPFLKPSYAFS
FLAG-tagged BLM with motif 3 deleted (P54132, form named): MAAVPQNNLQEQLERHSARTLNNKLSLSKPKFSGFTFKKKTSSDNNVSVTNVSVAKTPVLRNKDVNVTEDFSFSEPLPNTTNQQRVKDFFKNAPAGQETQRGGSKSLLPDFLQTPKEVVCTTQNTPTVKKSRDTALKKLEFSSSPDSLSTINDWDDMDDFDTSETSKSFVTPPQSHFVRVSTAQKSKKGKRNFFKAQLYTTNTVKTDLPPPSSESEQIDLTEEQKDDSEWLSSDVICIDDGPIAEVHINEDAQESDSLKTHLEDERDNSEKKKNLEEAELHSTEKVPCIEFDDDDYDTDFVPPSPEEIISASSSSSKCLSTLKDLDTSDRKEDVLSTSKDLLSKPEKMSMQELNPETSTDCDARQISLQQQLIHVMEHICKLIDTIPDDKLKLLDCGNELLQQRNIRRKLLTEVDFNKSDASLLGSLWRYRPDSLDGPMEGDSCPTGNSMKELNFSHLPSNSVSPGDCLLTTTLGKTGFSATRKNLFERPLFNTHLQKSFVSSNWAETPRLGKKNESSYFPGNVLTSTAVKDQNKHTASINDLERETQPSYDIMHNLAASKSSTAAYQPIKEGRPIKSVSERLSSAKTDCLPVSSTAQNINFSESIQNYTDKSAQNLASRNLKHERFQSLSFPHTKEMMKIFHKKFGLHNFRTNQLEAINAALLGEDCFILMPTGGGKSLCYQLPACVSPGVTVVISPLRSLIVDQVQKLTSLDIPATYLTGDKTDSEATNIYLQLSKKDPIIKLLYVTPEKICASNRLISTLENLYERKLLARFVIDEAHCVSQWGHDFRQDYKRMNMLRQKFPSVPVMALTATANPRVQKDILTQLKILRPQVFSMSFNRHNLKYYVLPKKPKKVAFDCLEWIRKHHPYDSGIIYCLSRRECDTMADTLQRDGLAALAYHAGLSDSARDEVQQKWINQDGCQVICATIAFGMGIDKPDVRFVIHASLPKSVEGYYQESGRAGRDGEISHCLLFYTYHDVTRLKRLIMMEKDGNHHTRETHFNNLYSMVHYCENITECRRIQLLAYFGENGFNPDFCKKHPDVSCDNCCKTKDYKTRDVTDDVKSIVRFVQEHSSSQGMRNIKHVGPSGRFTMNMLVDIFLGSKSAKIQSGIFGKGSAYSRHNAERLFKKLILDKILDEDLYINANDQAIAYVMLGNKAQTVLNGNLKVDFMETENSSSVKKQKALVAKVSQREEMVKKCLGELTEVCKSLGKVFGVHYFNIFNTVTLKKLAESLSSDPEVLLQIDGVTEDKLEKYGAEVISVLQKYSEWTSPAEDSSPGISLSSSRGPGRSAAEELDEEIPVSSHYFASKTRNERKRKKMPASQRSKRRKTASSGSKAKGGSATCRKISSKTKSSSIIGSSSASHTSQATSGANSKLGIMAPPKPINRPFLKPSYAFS
Full-length BLM with motif 2 deleted (P54132, form named): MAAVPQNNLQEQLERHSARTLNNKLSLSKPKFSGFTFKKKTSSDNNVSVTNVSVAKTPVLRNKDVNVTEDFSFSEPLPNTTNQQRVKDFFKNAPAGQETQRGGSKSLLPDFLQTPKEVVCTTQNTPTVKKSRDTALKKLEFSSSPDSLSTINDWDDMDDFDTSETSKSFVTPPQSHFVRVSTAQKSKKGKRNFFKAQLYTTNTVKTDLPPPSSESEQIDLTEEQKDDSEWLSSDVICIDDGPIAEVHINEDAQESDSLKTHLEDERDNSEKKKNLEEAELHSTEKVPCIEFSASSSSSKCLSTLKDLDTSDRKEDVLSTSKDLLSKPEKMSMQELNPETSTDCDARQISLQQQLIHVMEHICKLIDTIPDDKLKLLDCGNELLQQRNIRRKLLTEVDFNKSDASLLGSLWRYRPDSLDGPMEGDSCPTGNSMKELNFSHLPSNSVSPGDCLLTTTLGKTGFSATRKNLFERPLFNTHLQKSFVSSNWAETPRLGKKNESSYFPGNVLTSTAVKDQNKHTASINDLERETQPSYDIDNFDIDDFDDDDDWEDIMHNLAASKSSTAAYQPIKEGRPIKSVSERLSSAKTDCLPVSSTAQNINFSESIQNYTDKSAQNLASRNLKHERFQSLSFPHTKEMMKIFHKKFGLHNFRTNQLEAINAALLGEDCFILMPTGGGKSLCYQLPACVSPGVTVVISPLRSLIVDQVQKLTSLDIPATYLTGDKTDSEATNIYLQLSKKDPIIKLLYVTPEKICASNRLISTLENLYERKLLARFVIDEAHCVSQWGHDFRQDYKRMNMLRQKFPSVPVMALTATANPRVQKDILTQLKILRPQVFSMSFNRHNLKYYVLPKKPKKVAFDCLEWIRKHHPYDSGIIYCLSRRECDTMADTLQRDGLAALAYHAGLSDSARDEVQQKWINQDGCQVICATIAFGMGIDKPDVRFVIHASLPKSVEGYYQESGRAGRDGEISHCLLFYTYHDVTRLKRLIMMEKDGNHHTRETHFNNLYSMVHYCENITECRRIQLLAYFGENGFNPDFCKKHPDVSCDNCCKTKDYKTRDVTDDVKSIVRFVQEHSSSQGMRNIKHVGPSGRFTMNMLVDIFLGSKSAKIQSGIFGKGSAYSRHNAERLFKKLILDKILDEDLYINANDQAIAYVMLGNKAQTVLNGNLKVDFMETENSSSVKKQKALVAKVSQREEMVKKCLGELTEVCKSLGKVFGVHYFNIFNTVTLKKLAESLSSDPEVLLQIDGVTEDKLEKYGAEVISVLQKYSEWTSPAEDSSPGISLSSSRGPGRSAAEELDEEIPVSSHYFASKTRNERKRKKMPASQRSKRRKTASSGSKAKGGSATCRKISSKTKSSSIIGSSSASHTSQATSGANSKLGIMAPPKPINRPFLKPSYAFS
UniProt P15927: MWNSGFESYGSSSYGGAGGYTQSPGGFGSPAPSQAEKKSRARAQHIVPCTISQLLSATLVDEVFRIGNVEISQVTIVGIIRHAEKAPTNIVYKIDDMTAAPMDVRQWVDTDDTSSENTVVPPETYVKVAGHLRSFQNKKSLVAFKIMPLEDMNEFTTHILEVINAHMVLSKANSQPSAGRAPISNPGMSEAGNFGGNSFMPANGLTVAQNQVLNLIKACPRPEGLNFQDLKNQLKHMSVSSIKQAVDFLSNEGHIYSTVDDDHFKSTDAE

How the values were obtained:
GFP-tagged WT RPA1 = GFP-tagged WT RPA1 (UniProt P27694); test: co-IP; GFP-Trap magnetic agarose beads, lysates of transfected 293FT cells, Benzonase-treated, 200 mM NaCl, 2 mM EDTA, 2 h at 4 °C, western blotting
[1] = target: GFP-tagged R41E/Y42F RPA1 (UniProt P27694); test: as above
[2] = target: T1, RMI1 motif 5 peptide, N-terminally biotinylated (human); test: pull-down; biotinylated peptides on streptavidin beads with in vitro translated heterotrimeric RPA (WT or R41E/Y42F RPA1) in rabbit reticulocyte lysate, Benzonase-treated, 200 mM NaCl, 2 mM EDTA; only the target purified
T1 sequence (peptide, biotin on the N-terminus): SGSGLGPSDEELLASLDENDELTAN

[3] = target: BLM motif 1 peptide, N-terminally biotinylated (human); test: as above
[4] = target: T2, BLM motif 3 peptide, N-terminally biotinylated (human); test: as above
T2 sequence (peptide, biotin on the N-terminus): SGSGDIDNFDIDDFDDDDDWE

[5] = target: T3, RMI1 motif 6 peptide, N-terminally biotinylated (human); test: pull-down; biotinylated peptides on streptavidin Dynabeads M-280 incubated with clarified HeLa nuclear extract, 4 °C, 2 h; eluates analysed by western blotting; only the target purified
T3 sequence (peptide, biotin on the N-terminus): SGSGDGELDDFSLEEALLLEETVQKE

[6] = target: T4, BLM motif 2 peptide, native (not phosphorylated), N-terminally biotinylated (human); test: as above
T4 sequence (peptide, biotin on the N-terminus): SGSGDYDTDFVPPSPEEII

[7] = target: T1, RMI1 motif 5 peptide, N-terminally biotinylated (human); test: as above
[8] = target: BLM motif 1 peptide, N-terminally biotinylated (human); test: as above
[9] = target: T2, BLM motif 3 peptide, N-terminally biotinylated (human); test: as above

Substance: FLAG-tagged BLM with motif 1 deleted (from UniProt P54132 1-1417)
binding (GFP-tagged WT RPA1): binds

Substance: BLM, endogenous in 293FT cells (from UniProt P54132 1-1417)
binding (GFP-tagged WT RPA1): binds | binding [1]: no binding

Substance: RPA2 subunit of RPA from HeLa nuclear extracts (from UniProt P15927 1-270)
binding [5]: no binding | binding [6]: no binding

Substance: RPA1 subunit of RPA from HeLa nuclear extracts (from UniProt P27694 1-616)
binding [7]: binds | binding [5]: no binding | binding [6]: no binding | binding [8]: binds | binding [9]: binds

Substance: RPA1 R41E/Y42F, in vitro translated as part of the heterotrimeric RPA1-RPA2-RPA3 complex (from UniProt P27694 1-616)
binding [2]: no binding | binding [3]: no binding | binding [4]: no binding

Second part, the substance after the results:

binding [2]: binds | binding [3]: binds | binding [4]: binds
Substance: RPA1 WT, in vitro translated as part of the heterotrimeric RPA1-RPA2-RPA3 complex (from UniProt P27694 1-616)

binding (GFP-tagged WT RPA1): binds
Substance: FLAG-tagged BLM with motif 3 deleted (from UniProt P54132 1-1417)

binding (GFP-tagged WT RPA1): binds
Substance: FLAG-tagged BLM, wild type (from UniProt P54132 1-1417)

binding (GFP-tagged WT RPA1): binds
Substance: Full-length BLM with motif 2 deleted (from UniProt P54132 1-1417)

binding (GFP-tagged WT RPA1): binds weakly
Substance: FLAG-tagged BLM with the TR domain and motifs 1 and 3 deleted (from UniProt P54132 1-1417)

binding (GFP-tagged WT RPA1): binds
Substance: FLAG-tagged BLM with the TOP3A/RMI1-binding (TR) domain deleted (from UniProt P54132 1-1417)
